Results on three molecules are retold here after article PMC9465349, “G protein–coupled receptor kinase phosphorylation of distal C-tail sites specifies βarrestin1-mediated signaling by chemokine receptor CXCR4” (The Journal of Biological Chemistry, 2022).

Sequences of proteins named here, by UniProt entry; tags and fusion partners are left off. A change or cut given only in a name is not applied to a line headed by its entry. A line that says so, or that is headed by a name, gives the form on record, which may keep a tag or linker.
UniProt P61073: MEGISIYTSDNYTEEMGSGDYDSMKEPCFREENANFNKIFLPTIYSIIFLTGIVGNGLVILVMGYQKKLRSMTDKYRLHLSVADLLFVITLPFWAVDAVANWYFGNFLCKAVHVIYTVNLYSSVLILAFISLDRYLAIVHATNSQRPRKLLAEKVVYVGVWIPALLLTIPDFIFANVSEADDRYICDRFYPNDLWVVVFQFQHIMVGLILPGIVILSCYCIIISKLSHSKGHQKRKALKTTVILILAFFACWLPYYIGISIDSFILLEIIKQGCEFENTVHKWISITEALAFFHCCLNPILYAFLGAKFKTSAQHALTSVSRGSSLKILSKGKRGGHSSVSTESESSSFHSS
UniProt P32302: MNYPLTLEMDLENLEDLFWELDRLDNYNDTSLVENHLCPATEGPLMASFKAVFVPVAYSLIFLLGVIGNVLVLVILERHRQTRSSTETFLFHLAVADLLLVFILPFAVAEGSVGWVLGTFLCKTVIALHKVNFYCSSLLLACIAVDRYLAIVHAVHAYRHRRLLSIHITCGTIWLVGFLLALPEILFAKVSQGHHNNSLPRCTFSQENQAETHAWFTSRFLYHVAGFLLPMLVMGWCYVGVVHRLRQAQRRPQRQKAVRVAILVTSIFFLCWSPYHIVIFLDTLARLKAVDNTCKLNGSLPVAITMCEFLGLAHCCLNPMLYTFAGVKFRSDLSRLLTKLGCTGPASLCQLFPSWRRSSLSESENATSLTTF
CXCR5-RLuc8-4S/A (P32302, form named): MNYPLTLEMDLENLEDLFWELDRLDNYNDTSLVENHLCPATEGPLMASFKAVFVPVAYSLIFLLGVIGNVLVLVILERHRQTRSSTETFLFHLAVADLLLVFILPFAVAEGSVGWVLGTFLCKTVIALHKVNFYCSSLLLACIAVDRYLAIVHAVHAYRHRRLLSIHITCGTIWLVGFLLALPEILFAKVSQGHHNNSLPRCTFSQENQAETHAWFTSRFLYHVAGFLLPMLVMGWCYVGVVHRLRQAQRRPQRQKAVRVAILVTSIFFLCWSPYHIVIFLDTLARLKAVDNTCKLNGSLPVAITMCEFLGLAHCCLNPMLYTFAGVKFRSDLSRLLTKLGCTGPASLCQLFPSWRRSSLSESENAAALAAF

Results are given in words; binding and its absence hold for the method and conditions named. In cells and extracts the contact can be indirect. Some binding calls cover weakened binding; strength is not graded here.

B1: STAM1 (signal-transducing adaptor molecule 1) tagged at the N terminus with Rluc8 (natural protein, UniProt Q92783 1-540, looked up)
chain: MPLFATNPFDQDVEKATSEMNTAEDWGLILDICDKVGQSRTGPKDCLRSIMRRVNHKDPHVAMQALTLLGACVSNCGKIFHLEVCSRDFASEVSNVLNKGHPKVCEKLKALMVEWTDEFKNDPQLSLISAMIKNLKEQGVTFPAIGSQAAEQAKASPALVAKDPGTVANKKEEEDLAKAIELSLKEQRQQSTTLSTLYPSTSSLLTNHQHEGRKVRAIYDFEAAEDNELTFKAGEIITVLDDSDPNWWKGETHQGIGLFPSNFVTADLTAEPEMIKTEKKTVQFSDDVQVETIEPEPEPAFIDEDKMDQLLQMLQSTDPSDDQPDLPELLHLEAMCHQMGPLIDEKLEDIDRKHSELSELNVKVMEALSLYTKLMNEDPMYSMYAKLQNQPYYMQSSGVSGSQVYAGPPPSGAYLVAGNAQMSHLQSYSLPPEQLSSLSQAVVPPSANPALPSQQTQAAYPNTMVSSVQGNTYPSQAPVYSPPPAATAAAATADVTLYQNAGPNMPQVPNYNLTSSTLPQPGGSQQPPQPQQPYSQKALL
notes: STAM1 (signal-transducing adaptor molecule 1); the plasmid holds 'the STAM1-coding region' in pcDNA3; New plasmid; Rluc8 fragment from pTRE-Tight-Rluc8 (Addgene 79844); also called Rluc8-STAM1; RLuc8-STAM1; source: HEK293, transiently transfected (PEI), in live cells; not shown: Rluc8, N-terminal, kept
B2: βarrestin1-GFP10 (natural protein, UniProt P49407 1-418, looked up)
chain: MGDKGTRVFKKASPNGKLTVYLGKRDFVDHIDLVDPVDGVVLVDPEYLKERRVYVTLTCAFRYGREDLDVLGLTFRKDLFVANVQSFPPAPEDKKPLTRLQERLIKKLGEHAYPFTFEIPPNLPCSVTLQPGPEDTGKACGVDYEVKAFCAENLEEKIHKRNSVRLVIRKVQYAPERPGPQPTAETTRQFLMSDKPLHLEASLDKEIYYHGEPISVNVHVTNNTNKTVKKIKISVRQYADICLFNTAQYKCPVAMEEADDTVAPSSTFCKVYTLTPFLANNREKRGLALDGKLKHEDTNLASSTLLREGANREILGIIVSYKVKVKLVVSRGGLLGDLASSDVAVELPFTLMHPKPKEEPPHREVPENETPVDTNLIELDTNDDDIVFEDFARQRLKGMKDDKEEEEDGTGSPQLNNR
notes: βarrestin1 (βarr1); plasmid a gift from Michel Bouvier; Gift plasmid; also called βarr1-GFP; βarr1-GFP^10; source: HEK293, transiently transfected (PEI), in live cells

In test [1] the target is T1, CXCR4-Rluc3 (UniProt P61073 1-352).
T1 construct: chemokine receptor CXCR4; plasmid a gift from Nikolaus Heveker; Gift plasmid; also called Rluc3-tagged CXCR4; source: HEK293, transiently transfected (PEI), in live cells
The experiment in a line: FRET or BRET; BRET in live HEK293 cells coexpressing CXCR4-Rluc3 or CXCR5-Rluc8 with STAM1-GFP, cotransfected with βarr1; increasing concentrations of CXCL12 or CXCL13, 10 min, 37 °C. A general note: In BRET a luciferase serves as donor, and the signal depends on an acceptor being close.

Test [2] concerns the target CXCR5 tagged with Rluc8 at the C terminus (wild type) (UniProt P32302). The description is as above.
Test [3] concerns the target B2. The experiment in a line: FRET or BRET; BRET2 in live HEK293 cells coexpressing FLAG-CXCR5 (wild type), Rluc8-STAM1 and βarr1-GFP; increasing concentrations of CXCL13, 10 min, 37 °C.
Test [4] deals with B2. The experiment in a line: FRET or BRET; BRET2 in live HEK293 cells coexpressing HA-tagged CXCR4 Ser-324/5A, Rluc8-STAM1 and βarr1-GFP; increasing concentrations of CXCL12, 10 min, 37 °C.
For test [5], the target named is B2. The experiment in a line: FRET or BRET; BRET2 in live HEK293 cells coexpressing the chimera CCR5 with the C-tail of CXCR4 (CCR5-R4 tail), Rluc8-STAM1 and βarr1-GFP; increasing concentrations of CCL5, 10 min, 37 °C.
Test [6] has as its target B2. The experiment in a line: condition: only with 30 μM GRK2/3 inhibitor compound 101 (cells expressing HA-CXCR4, CXCL12); FRET or BRET; as a1, but cells pretreated with 30 μM GRK2/3 inhibitor compound 101 (30 min) before CXCL12.
The target of test [7] is B2. Put plainly: condition: only in cells expressing FLAG-CXCR5-4S/A stimulated with CXCL13; FRET or BRET; BRET2 in live HEK293 cells coexpressing FLAG-CXCR5-4S/A, Rluc8-STAM1 and βarr1-GFP; increasing concentrations of CXCL13, 10 min, 37 °C.
For test [8], the target named is B2. The experiment in a line: condition: only in cells expressing FLAG-β2AR stimulated with isoproterenol; FRET or BRET; BRET2 in live HEK293 cells coexpressing FLAG-β2AR, Rluc8-STAM1 and βarr1-GFP; increasing concentrations of isoproterenol, 10 min, 37 °C.
Test [9] concerns the target B2. The experiment in a line: condition: only in cells expressing CCR5 stimulated with CCL5; FRET or BRET; BRET2 in live HEK293 cells coexpressing CCR5 (HA-tagged in the legend, FLAG-CCR5 in the text), Rluc8-STAM1 and βarr1-GFP; increasing concentrations of CCL5, 10 min, 37 °C.
Test [10] has as its target B2. The experiment in a line: condition: only in cells expressing CXCR4 Ser-346/7A in place of wild-type CXCR4 (CXCL12); FRET or BRET; BRET2 in live HEK293 cells coexpressing HA-tagged CXCR4 Ser-346/7A, Rluc8-STAM1 and βarr1-GFP; increasing concentrations of CXCL12, 10 min, 37 °C.
The target in test [11] is B2. Put plainly: FRET or BRET; BRET2 in live HEK293 cells coexpressing HA-CXCR4, Rluc8-STAM1 (donor) and βarr1-GFP10 (acceptor); increasing concentrations of CXCL12 at 37 °C, read at room temperature 10 min after CXCL12; vehicle or 1 μM PKC inhibitor Gö6983 (no effect).
Test [12] addresses B2. The experiment in a line: condition: only in cells expressing the chimera CXCR4-R5 tail stimulated with CXCL12; FRET or BRET; BRET2 in live HEK293 cells coexpressing the chimera CXCR4 with the C-tail of CCR5 (CXCR4-R5 tail), Rluc8-STAM1 and βarr1-GFP; increasing concentrations of CXCL12, 10 min, 37 °C.
Test [13] has as its target CXCR5 tagged with Rluc8 at the C terminus (wild type) (UniProt P32302). Put plainly: FRET or BRET; BRET2 in live HEK293 cells coexpressing a GPCR tagged with Rluc (CXCR4-Rluc3, or GPCR-Rluc8; donor) and βarr1-GFP10 (acceptor); increasing concentrations of the receptor's agonist at 37 °C; vehicle or 1 μM Gö6983 (little effect, CXCR4).
Test [14] addresses CXCR5-RLuc8-4S/A (UniProt P32302). The test is described as above.

For STAM1-GFP (from UniProt Q92783 1-540), the binding entry in [1] and in [2] was “binds” in each case.
For the molecule B1, the binding entry in [3] is given as “binds”; in [4] it was “binds”; in [5], “binds”; in test [6], “no binding”; in [7] it was “no binding”; in [8] it was “no binding”. Also, the binding entry was “no binding” in test [9], “no binding” in test [10], “binds” in test [11] and “no binding” in test [12].
Take B2: the binding entry in test [13] was “binds”; in test [14] it was “no binding”.
